# Experimental data taken from ChEMBL document CHEMBL4888484, “Replenishing the malaria drug discovery pipeline: Screening and hit evaluation of the MMV Hit Generation Library 1 (HGL1) against asexual blood stage Plasmodium falciparum ,using a nano luciferase reporter read-out” (2022).
# In all, about 150,000 compounds went through this assay and about 540 (0.36%) showed an effect of 50% or more. Some of the results follow.
# System: Plasmodium falciparum
# Experiment: Primary screen in NF54 nanoGlo assay, in single point, at 2uM, 72h; a lower Z score goes with more inhibition
# Assay type: functional, Erythrocyte
# Settings: timepoint 72 hour
Compound,% Inhibition [%],Z score
CCOc1cc(C(=O)Nc2ccncc2)ncn1,5,-0.88
CC(=O)N1CCC(CN(C)C(C)c2ccc(C(C)C)cc2)C1 (stereo not drawn),-1,0.16
CN1C(=O)CC[C@@]12CCN(S(=O)(=O)c1ccc3c(c1)CCCC3)C2,-3,0.4
O=c1[nH]cnn1-c1ccc(Br)cc1,-11,1.65
O=S(=O)(NCc1ccccc1)N[C@H]1CCCN(c2ncccn2)C1,-12,2.36
O=C(N[C@@H]1CCc2ccccc21)c1ccccc1,-7,1.07
C[C@H](NCc1cc(O)nc(C2CC2)n1)c1cscn1,-9,1.59
CC1CCN([C@H]2CCc3c(c(C(=O)N(C)C)nn3Cc3ccccc3)C2)CC1,-8,0.93
Cc1ccc(=O)n(CCOc2ccc(Cl)c(F)c2)n1,5,-0.58
NC(=O)[C@H]1CCCN(c2noc3ccc(Br)cc23)C1,29,-3.33
CN(C)[C@@H](CNC(=O)c1cc2c([nH]1)CCCC2)C1CC1,-7,0.97
N#C[C@H](c1nc2ccccc2nc1N1CCN(c2ccccc2)CC1)S(=O)(=O)c1cccs1,-10,0.89
CC[C@](C)(Nc1ccc2c(c1)OCO2)c1nnnn1-c1ccc(OC)cc1,1,-0.18
Cc1nn(CC(=O)N2CCC(=O)NC[C@@H]2C)c(=O)n1CCc1ccccc1,-4,0.53
COc1ccccc1C(=O)NCc1nccc(N(C)C)n1,-11,1.7
COc1cccc(C(=O)N2CCN(c3cccnc3)C(=O)C2)c1OC,9,-1.08
COCCNC(=O)N1CC[C@H](c2ccsc2)C1,-6,1.14
CC1(C)CN(C(=O)c2csc(C3CC3)n2)CC[S@@+]1[O-],2,-0.23
O=C(NCc1cccc(COCc2ccco2)c1)c1cc2c(cc1O)OCO2,2,-0.3
CCOCC(=O)N1C[C@@H](COC)[C@H](c2nc(C3CC3)no2)C1,-8,1.39
O=C(Cn1nc(-c2ccccc2)ccc1=O)N1CC2CCC(O)C2C1 (stereo not drawn),-2,0.28

Compound,% Inhibition [%],Z score
COc1ccc2[nH]c(CN3C[C@@H]4CC[C@H]3CN(S(C)(=O)=O)C4)c(C)c2c1,-4,0.71
O=C1CCN(c2nc(-c3cccnc3)nc3ccccc23)CCN1,0,-0.02
COCCN(CC(=O)N1N=C(c2cccn2C)C[C@H]1c1ccc(Cl)cc1)C(=O)c1cccc(F)c1,3,-0.43
O=C(Nc1cccnc1)c1c[nH]c(=O)n(Cc2cccs2)c1=O,1,-0.09
CC(C)CC[C@@H](CCNCc1ccccn1)c1ccc(Cl)cc1,25,-3.14
CCc1nnc2c(=O)n(CC(=O)N3CCN(c4ccccc4F)CC3)c3ccccc3n12,-9,1.05
COc1ccc(-c2noc(-c3cccn3CC(=O)N3CCCC3)n2)cc1OC,-8,1.06
Cc1ccc(/C=C/[C@]23NC(=O)CN2c2ccccc2C3(C)C)cc1,11,-1.34
CC(=O)NC1CN(C(=O)N[C@@H](C)CC(C)(C)C)C1,-7,1.47
Cc1cc(Cl)ccc1Nc1nc(N2CCN(c3ccc(F)cc3)CC2)nc2nccnc12,-22,2.5
CN(Cc1ccsc1)C(=O)Cn1cnc2ccccc21,-17,1.45
CCn1ccc(C(=O)N(C[C@H]2CCOC2)C2CCN(C)CC2)n1,-10,1.34
CC(C)(C)OC(=O)N1CCC[C@H]1C(=O)NCc1ccc(-n2cncn2)nc1,-7,0.89
Cc1cnc(C)c(N2CC[C@@]3(CCCN(CC4CCC4)C3=O)C2)n1,-4,0.87
Cc1cc(=O)n(CC(=O)Nc2ccc(F)cc2C)c(N2CCCC2)n1,-6,0.69
COc1cc(CN2CCN3CCCC3C2C2CCCCC2)cc(OC)c1 (stereo not drawn),-5,1.02
O=C1c2cccc(Cl)c2CCN1CCNCc1ccccc1,9,-1.67
COc1ccc(C(=O)N2CCN(Cc3c(-c4ccc(F)cc4)nc4ccc(-c5ccccc5)cn34)CC2)cc1,-1,0.07
Cc1nonc1N1CCN(Cc2nc(-c3cc4c(cc3Cl)OCO4)oc2C)CC1,-6,1.15
COc1cc2c(C#N)c(OC)nc3c2c(n1)NC1(CCCCC1)N3,-2,0.21
O=C(O)c1cccc(S(=O)(=O)NC[C@@H]2COc3ccccc3C2)c1,15,-1.97

Compound,% Inhibition [%],Z score
CC(C)n1cc(CN(C)c2nccnc2C#N)cn1,-9,1.58
Cn1ncc(C(=O)Nc2cccc(Oc3ccncc3)c2)c1C(F)F,-12,1.47
COc1ccccc1/C=C/CN[C@H]1CC[C@@H](n2cc(C(=O)NC3CC3)nn2)CC1,5,-0.93
Cc1nc(C(=O)c2ccccc2)c(C)o1,-17,1.94
CCCS(=O)(=O)N1CC(Oc2ccccc2-c2nc(CCOC)no2)C1,8,-0.95
COc1cc(NC(=O)Cc2noc3ccccc23)ccc1N1CCOC1=O,-1,0.11
CCOc1ccccc1N(C)C(=O)C1c2ccccc2C(=O)N(C)C1c1ccc(OC)cc1 (stereo not drawn),12,-1.92
CCOC(=O)N1CCN(C(=O)c2cc3ccccc3cc2NC(=O)C(C)C)CC1,-2,0.43
Cn1cc(NC(=O)[C@H]2CCOC3(CCCC3)C2)c(C(N)=O)n1,1,-0.08
CN(C)c1ccnc(N2CCN(c3ccc(C(N)=O)cc3)CC2)n1,-2,0.26
Cc1ncc(CN2CCN(Cc3ccncc3)[C@@H]3CS(=O)(=O)C[C@@H]32)cn1,1,-0.14
COc1ccc([C@H](C)NS(N)(=O)=O)cc1F,-4,0.69
CCS(=O)(=O)C[C@H](C)N(C)C(=O)NCCc1ccc(F)cc1F,-9,1.07
N#Cc1ccc(S(=O)(=O)NCC2(C3CC3)CCC2)s1,0,-0.01
C[C@@H](C(=O)NS(=O)(=O)c1ccsc1)c1ccccc1,1,-0.08
CC(C)N1CC(=O)N(Cc2ccc(N(C)C)nc2)C1=O,2,-0.34
CCCc1nc(C(=O)N(C)C[C@H]2CCN(c3ccccc3)C2)cs1,14,-1.87
NS(=O)(=O)[C@H]1CCCN(C(=O)c2cc(-c3ccccc3)ns2)C1,-9,1.42
CC(=O)N[C@H]1C[C@H](c2nnc(CN(C)Cc3csc(C(C)C)n3)n2C)C1,-6,1.06
CC1CCN(C[C@]2(O)CCCN(Cc3ccc(F)c(F)c3)C2=O)CC1,-8,1.6
CN(C)CCN1C(=O)c2cc3occc3n2C[C@@]1(C)C(=O)NC1CCCCC1,-1,0.19

Compound,% Inhibition [%],Z score
Cc1c(F)cccc1NCc1ncccn1,-11,1.1
CCc1[nH]nc(-c2ccc3c(c2)OCO3)c1NC(=O)Nc1ccc(Cl)cc1,-13,1.63
O=C(Nc1cc(-c2nc[nH]n2)ccc1F)[C@H]1CCS(=O)(=O)C1,-6,0.99
CCOc1ccccc1[C@H](CC)NC(=O)N1CCCCO1,-10,0.93
CCc1ccsc1C(=O)N1CCCC1C1CCCN1C (stereo not drawn),-2,0.29
CC1=C[C@@H](CNCCN2CCOCC2)[C@H](C(C)C)C[C@H]1Cc1nnc(C(C)(C)C)o1,-11,1.68
CN1CCC(NC(=O)C(=O)c2ccc(C(C)(C)C)cc2)CC1,-11,1.34
COCCN1CCN2C(=O)[C@H](C)N(C(=O)c3cc(C4CC4)[nH]n3)C[C@H]2C1=O,-18,1.6
CCCN1CCN(C(=O)c2ccc(C(=O)O)nc2)c2ccc(F)cc21,-2,0.24
Cc1nnc(CN(C)Cc2cccc(C#N)c2)n1C,4,-0.51
O=C(c1ccccc1)N1CCN(C(=O)c2ccc3ccccc3n2)CC1,4,-0.73
Cc1n[nH]c(C)c1CCN(C)[C@@H](/C=C/C(C)(C)C)C(=O)O,-10,1.13
Cc1ccc(Cc2c(C)nc(C)nc2N2CCN(C[C@H](O)COC(C)(C)C)CC2)cc1,1,-0.07
CN(C(=O)Cn1c2ccccc2n2c(=O)cc(-c3ccc(F)cc3)nc12)c1ccccc1,-7,0.85
Cn1nncc1NC(=O)NCc1cnn(CCF)c1,-2,0.32
O=C(NCc1ccc(N2CCCCC2)nc1)C1CCCCC1,-5,0.84
NC(=O)C1CCCC1NC(=O)CC(O)c1ccc(Cl)cc1 (stereo not drawn),9,-1.18
C[C@@H]1OC2(CCN(Cc3c[nH]nc3-c3ccc(C(F)(F)F)cc3)CC2)NC1=O,-15,3.07
C#CCCC1(CCC(=O)N2CC3CCCC3C2C(N)=O)N=N1 (stereo not drawn),-6,0.73
O=C(NCc1ccccn1)c1c[nH]c(=O)n(Cc2ccc3c(c2)OCO3)c1=O,-22,3.82
CC[C@H](N)C(=O)N(C)Cc1cccc(F)c1,-9,1.5
